# Test results taken from the supplement of paper PMC8728848.
# The other results are listed elsewhere or left out.
# B1: SSR1 (Sclerotium rolfsii), A0A0M3KL30 (protein)
# chain: TYKITVRVYQTNPDAFFHPVEKTVWKYANGGTWTITDDQHVLTMGGSGTSGTLRFHADNGESFTATFGVHNYKRWCDIVTNLAADETGMVINQQYYSQKNREEARERQLSNYQVKNAKGRNFQIVYTEAEGNDLHANLIIG
# Key:
# Test in all cases: glycan array binding signal (z-score within array); higher = stronger binding
# Conditions in all cases: glycan notation: IUPAC condensed, linker removed
# [1] = target: Neu5Ac(a2-6)GalNAc(b1-4)GlcNAc
# Method in brief: (§1)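 Columns mapping to the same glycan were averaged after glycan names were converted to IUPAC-condensed notation. The data come from 3228 arrays in the Consortium for Functional Glycomics database, limited to those with an available protein sequence. Binding is reported as a within-array Z-score averaged across arrays of one protein sequence and across linkers.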
# [2] = target: Neu5Ac(a2-6)GalNAc(b1-4)GlcNAc6S
# Method in brief: as §1
# [3] = target: Neu5Ac(a2-6)GlcNAc(b1-4)GlcNAc
# Method in brief: as §1
# [4] = target: Neu5Ac(a2-6)GlcNAc(b1-4)GlcNAc(b1-4)GlcNAc
# Method in brief: as §1
# Neu5Ac(a2-8)Neu5Ac = target: Neu5Ac(a2-8)Neu5Ac
# Method in brief: as §1
# [5] = target: Neu5Ac(a2-8)Neu5Ac(a2-3)Gal(b1-3)GalNAc(b1-4)[Neu5Ac(a2-3)]Gal(b1-4)Glc
# Method in brief: as §1
# [6] = target: Neu5Ac(a2-8)Neu5Ac(a2-3)Gal(b1-3)GalNAc(b1-4)[Neu5Ac(a2-8)Neu5Ac(a2-3)]Gal(b1-4)Glc
# Method in brief: as §1
# [7] = target: Neu5Ac(a2-8)Neu5Ac(a2-3)Gal(b1-4)Glc
# Method in brief: as §1
# [8] = target: Neu5Ac(a2-8)Neu5Ac(a2-3)Gal(b1-4)GlcNAc
# Method in brief: as §1
# [9] = target: Neu5Ac(a2-8)Neu5Ac(a2-3)[Gal(b1-3)GalNAc(b1-4)]Gal(b1-4)Glc
# Method in brief: as §1
# [10] = target: Neu5Ac(a2-8)Neu5Ac(a2-3)[GalNAc(b1-4)]Gal(b1-4)Glc
# Method in brief: as §1
# [11] = target: Neu5Ac(a2-8)Neu5Ac(a2-8)Neu5Ac
# Method in brief: as §1
# [12] = target: Neu5Ac(a2-8)Neu5Ac(a2-8)Neu5Ac(a2-3)Gal(b1-4)Glc
# Method in brief: as §1
# [13] = target: Neu5Ac(a2-8)Neu5Ac(a2-8)Neu5Ac(a2-3)[Gal(b1-3)GalNAc(b1-4)]Gal(b1-4)Glc
# Method in brief: as §1
# [14] = target: Neu5Ac(a2-8)Neu5Ac(a2-8)Neu5Ac(a2-3)[GalNAc(b1-4)]Gal(b1-4)Glc
# Method in brief: as §1
# [15] = target: Neu5Ac(a2-8)Neu5Ac(a2-8)Neu5Ac(a2-8)Neu5Ac(a2-3)[GalNAc(b1-4)]Gal(b1-4)Glc
# Method in brief: as §1
# [16] = target: Neu5Ac(a2-8)Neu5Gc(a2-3)Gal(b1-4)GlcNAc
# Method in brief: as §1
# [17] = target: Neu5Ac(b2-6)Gal(b1-4)GlcNAc
# Method in brief: as §1
# Neu5Ac(b2-6)GalNAc = target: Neu5Ac(b2-6)GalNAc
# Method in brief: as §1
# [18] = target: Neu5Ac9Ac(a2-3)Gal(b1-3)GlcNAc
# Method in brief: as §1
# [19] = target: Neu5Ac9Ac(a2-3)Gal(b1-4)GlcNAc
# Method in brief: as §1
# [20] = target: Neu5Ac9Ac(a2-6)Gal(b1-4)GlcNAc
# Method in brief: as §1
# [21] = target: Neu5Gc(a2-3)Gal(b1-3)GlcNAc
# Method in brief: as §1
# [22] = target: Neu5Gc(a2-3)Gal(b1-3)[Fuc(a1-4)]GlcNAc
# Method in brief: as §1
# Neu5Gc(a2-3)Gal(b1-4)Glc = target: Neu5Gc(a2-3)Gal(b1-4)Glc
# Method in brief: as §1
# [23] = target: Neu5Gc(a2-3)Gal(b1-4)GlcNAc
# Method in brief: as §1
# [24] = target: Neu5Gc(a2-3)Gal(b1-4)GlcNAc(b1-3)Gal(b1-4)GlcNAc(b1-2)Man(a1-3)[Neu5Gc(a2-3)Gal(b1-4)GlcNAc(b1-3)Gal(b1-4)GlcNAc(b1-2)Man(a1-6)]Man(b1-4)GlcNAc(b1-4)GlcNAc
# Method in brief: as §1
# [25] = target: Neu5Gc(a2-3)Gal(b1-4)[Fuc(a1-3)]GlcNAc
# Method in brief: as §1
# [26] = target: Neu5Gc(a2-6)Gal(b1-4)GlcNAc
# Method in brief: as §1
# Neu5Gc(a2-6)GalNAc = target: Neu5Gc(a2-6)GalNAc
# Method in brief: as §1
# [27] = target: Neu5Gc(a2-8)Neu5Ac(a2-3)Gal(b1-4)GlcNAc
# Method in brief: as §1
# [28] = target: Neu5Gc(a2-8)Neu5Gc(a2-3)Gal(b1-4)GlcNAc
# Method in brief: as §1
# [29] = target: Neu5Gc(a2-8)Neu5Gc(a2-3)Gal(b1-4)GlcNAc(b1-3)Gal(b1-4)GlcNAc
# Method in brief: as §1
# [30] = target: Neu5Gc(a2-8)Neu5Gc(a2-6)Gal(b1-4)GlcNAc
# Method in brief: as §1
# [31] = target: Neu5Gc(b2-6)Gal(b1-4)GlcNAc
# Method in brief: as §1
binder,measurement,setting,value
B1,glycan array binding signal (z-score),[1],-0.351
same,glycan array binding signal (z-score),[2],-0.342
same,glycan array binding signal (z-score),[3],-0.326
same,glycan array binding signal (z-score),[4],-0.352
same,glycan array binding signal (z-score),Neu5Ac(a2-8)Neu5Ac,-0.338
same,glycan array binding signal (z-score),[5],-0.34
same,glycan array binding signal (z-score),[6],-0.293
same,glycan array binding signal (z-score),[7],-0.338
same,glycan array binding signal (z-score),[8],-0.35
same,glycan array binding signal (z-score),[9],-0.352
same,glycan array binding signal (z-score),[10],-0.337
same,glycan array binding signal (z-score),[11],-0.329
same,glycan array binding signal (z-score),[12],-0.331
same,glycan array binding signal (z-score),[13],-0.327
same,glycan array binding signal (z-score),[14],-0.32
same,glycan array binding signal (z-score),[15],-0.334
same,glycan array binding signal (z-score),[16],-0.342
same,glycan array binding signal (z-score),[17],-0.34
same,glycan array binding signal (z-score),Neu5Ac(b2-6)GalNAc,-0.328
same,glycan array binding signal (z-score),[18],-0.343
same,glycan array binding signal (z-score),[19],-0.27
same,glycan array binding signal (z-score),[20],-0.321
same,glycan array binding signal (z-score),[21],-0.329
same,glycan array binding signal (z-score),[22],-0.332
same,glycan array binding signal (z-score),Neu5Gc(a2-3)Gal(b1-4)Glc,-0.278
same,glycan array binding signal (z-score),[23],-0.352
same,glycan array binding signal (z-score),[24],-0.334
same,glycan array binding signal (z-score),[25],-0.316
same,glycan array binding signal (z-score),[26],-0.329
same,glycan array binding signal (z-score),Neu5Gc(a2-6)GalNAc,-0.318
same,glycan array binding signal (z-score),[27],-0.34
same,glycan array binding signal (z-score),[28],-0.333
same,glycan array binding signal (z-score),[29],-0.344
same,glycan array binding signal (z-score),[30],-0.349
same,glycan array binding signal (z-score),[31],-0.308
